Measurements reported in patent publication US20220372458A1 (PALLEON PHARMACEUTICALS, published 2022).

How the values were obtained:
[1] = target: human PD-L1 expressed on engineered CHO-K1 cells (human, UniProt Q9NZQ7); test: cell-based or functional assay
[2] = target: T1, recombinant human PD-L1 (human, UniProt Q9NZQ7 part only, limits assumed); test: ForteBio Octet (BLI), recombinant human PD-L1; sensor format for the table not stated
T1 construct: Used in the ForteBio Octet assays; also called PD-L1 antigen

[3] = target: T1, recombinant human PD-L1; test: ForteBio Octet (BLI), recombinant human PD-L1
T1 sequence (Q9NZQ7 19-238 limits assumed): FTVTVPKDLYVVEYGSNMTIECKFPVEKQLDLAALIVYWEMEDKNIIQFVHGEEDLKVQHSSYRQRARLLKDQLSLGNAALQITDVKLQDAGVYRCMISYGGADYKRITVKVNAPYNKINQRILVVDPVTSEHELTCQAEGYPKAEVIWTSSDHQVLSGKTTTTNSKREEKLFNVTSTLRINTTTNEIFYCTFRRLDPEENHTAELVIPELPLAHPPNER

Binder | EC50 of fold induction of luminescence (curve fit), PD-1/PD-L1 Blockade Bioassay with PD-L1 CHO-K1 cells and PD-1 Jurkat NFAT-luciferase cells [1] [mg/L] | Kd [2] [nM] | koff [2] [s⁻¹] | kon [2] [M⁻¹ s⁻¹] | Kd [3] [nM] | koff [3] [s⁻¹] | kon [3] [M⁻¹ s⁻¹]
Janus #2 (other) light: QSALTQPASVSGSPGQSITISCTGTSSDVGGYNYVSWYQQHPGKAPKLMIYDVSNRPSGVSNRFSGSKSGNTASLTISGLQAEDEADYYCSSYTSSSTRVFGTGTKVTVLGQPKANPTVTLFPPSSEELQANKATLVCLISDFYPGAVTVAWKADGSPVKAGVETTKPSKQSNNKYAASSYLSLTPEQWKSHRSYSCQVTHEGSTVEKTVAPTECS heavy: EVQLLESGGGLVQPGGSLRLSCAASGFTFSSYIMMWVRQAPGKGLEWVSSIYPSGGITFYADTVKGRFTISRDNSKNTLYLQMNSLRAEDTAVYYCARIKLGTVTTVDYWGQGTLVTVSSASTKGPSVFPLAPSSKSTSGGTAALGCLVKDYFPEPVTVSWNSGALTSGVHTFPAVLQSSGLYSLSSVVTVPSSSLGTQTYICNVNHKPSNTKVDKKV[human IgG1 Fc with T366Y (EU numbers) not given here] DASLPYLQKESVFQSGAHAYRIPALLYLPGQQSLLAFAEQRASKKDEHAELIVLRRGDYDAGTHQVQWQAQEVVAQARLDGHRSMNPCPLYDEQTGTLFLFFIAIPGQVTEQQQLQTRANVTRLCQVTSTDHGRTWSSPRDLTDAAIGPAYREWSTFAVGPGHCLQLHDRARSLVVPAYAYRKLHPKQRPIPSAFCFLSHDHGRTWARGHFVAQDTLECQVAEVETGEQRVVTLNARSHLRARVQAQSTNDGLDFQESQLVKKLVEPPPQGCQGSVISFPSPRSGPGSPAQWLLYTHPTHSWQRADLGAYLNPRPPAPEAWSEPVLLAKGSAAYSDLQSMGTGPDGSPLFGCLYEANDYEEIVFLMFTLKQAFPAEYLPQGGGGSGGGGS[human IgG1 Fc with Y407T (EU numbers) not given here] | 1.05 | 0.747 | 0.000212 | 302000 | – | – | –
Bunk #1 (other) light: QSALTQPASVSGSPGQSITISCTGTSSDVGGYNYVSWYQQHPGKAPKLMIYDVSNRPSGVSNRFSGSKSGNTASLTISGLQAEDEADYYCSSYTSSSTRVFGTGTKVTVLGQPKANPTVTLFPPSSEELQANKATLVCLISDFYPGAVTVAWKADGSPVKAGVETTKPSKQSNNKYAASSYLSLTPEQWKSHRSYSCQVTHEGSTVEKTVAPTECS heavy: EVQLLESGGGLVQPGGSLRLSCAASGFTFSSYIMMWVRQAPGKGLEWVSSIYPSGGITFYADTVKGRFTISRDNSKNTLYLQMNSLRAEDTAVYYCARIKLGTVTTVDYWGQGTLVTVSSASTKGPSVFPLAPSSKSTSGGTAALGCLVKDYFPEPVTVSWNSGALTSGVHTFPAVLQSSGLYSLSSVVTVPSSSLGTQTYICNVNHKPSNTKVDKKV[human IgG1 Fc with T366Y (EU numbers) not given here]GGGGSGGGGSGGGGSQSALTQPASVSGSPGQSITISCTGTSSDVGGYNYVSWYQQHPGKAPKLMIYDVSNRPSGVSNRFSGSKSGNTASLTISGLQAEDEADYYCSSYTSSSTRVFGTGTKVTVLGQPKAGGGGSGGGGSGGGGSEVQLLESGGGLVQPGGSLRLSCAASGFTFSSYIMMWVRQAPGKGLEWVSSIYPSGGITFYADTVKGRFTISRDNSKNTLYLQMNSLRAEDTAVYYCARIKLGTVTTVDYWGQGTLVTVSS DASLPYLQKESVFQSGAHAYRIPALLYLPGQQSLLAFAEQRASKKDEHAELIVLRRGDYDAGTHQVQWQAQEVVAQARLDGHRSMNPCPLYDEQTGTLFLFFIAIPGQVTEQQQLQTRANVTRLCQVTSTDHGRTWSSPRDLTDAAIGPAYREWSTFAVGPGHCLQLHDRARSLVVPAYAYRKLHPKQRPIPSAFCFLSHDHGRTWARGHFVAQDTLECQVAEVETGEQRVVTLNARSHLRARVQAQSTNDGLDFQESQLVKKLVEPPPQGCQGSVISFPSPRSGPGSPAQWLLYTHPTHSWQRADLGAYLNPRPPAPEAWSEPVLLAKGSAAYSDLQSMGTGPDGSPLFGCLYEANDYEEIVFLMFTLKQAFPAEYLPQGGGGS[human IgG1 Fc with Y407T (EU numbers) not given here] | 1.13 | – | – | – | – | – | –
Janus #1 (other, Antibody sialidase conjugate with one avelumab arm (light chain plus heavy chain) and one sialidase-Fc arm; The sialidase is human Neu2 with M1D, V6Y, P62G, A93E, I187K and C332A, joined to Fc by a GGGGS linker; The two Fc domains carry knob (T366Y) / hole (Y407T) mutations; also called Ave-Janus; Janus Antibody Sialidase Conjugate (ASC)) light: QSALTQPASVSGSPGQSITISCTGTSSDVGGYNYVSWYQQHPGKAPKLMIYDVSNRPSGVSNRFSGSKSGNTASLTISGLQAEDEADYYCSSYTSSSTRVFGTGTKVTVLGQPKANPTVTLFPPSSEELQANKATLVCLISDFYPGAVTVAWKADGSPVKAGVETTKPSKQSNNKYAASSYLSLTPEQWKSHRSYSCQVTHEGSTVEKTVAPTECS heavy: EVQLLESGGGLVQPGGSLRLSCAASGFTFSSYIMMWVRQAPGKGLEWVSSIYPSGGITFYADTVKGRFTISRDNSKNTLYLQMNSLRAEDTAVYYCARIKLGTVTTVDYWGQGTLVTVSSASTKGPSVFPLAPSSKSTSGGTAALGCLVKDYFPEPVTVSWNSGALTSGVHTFPAVLQSSGLYSLSSVVTVPSSSLGTQTYICNVNHKPSNTKVDKKV[human IgG1 Fc with T366Y (EU numbers) not given here] DASLPYLQKESVFQSGAHAYRIPALLYLPGQQSLLAFAEQRASKKDEHAELIVLRRGDYDAGTHQVQWQAQEVVAQARLDGHRSMNPCPLYDEQTGTLFLFFIAIPGQVTEQQQLQTRANVTRLCQVTSTDHGRTWSSPRDLTDAAIGPAYREWSTFAVGPGHCLQLHDRARSLVVPAYAYRKLHPKQRPIPSAFCFLSHDHGRTWARGHFVAQDTLECQVAEVETGEQRVVTLNARSHLRARVQAQSTNDGLDFQESQLVKKLVEPPPQGCQGSVISFPSPRSGPGSPAQWLLYTHPTHSWQRADLGAYLNPRPPAPEAWSEPVLLAKGSAAYSDLQSMGTGPDGSPLFGCLYEANDYEEIVFLMFTLKQAFPAEYLPQGGGGS[human IgG1 Fc with Y407T (EU numbers) not given here] | – | – | – | – | 1.28 | 0.000139 | 129000
